Laboratory results taken from the supplement of paper PMC8728848.
The other results are listed elsewhere or left out.

What was measured:
Assay in all cases: glycan array binding signal (z-score within array); higher = stronger binding
Conditions in all cases: glycan notation: IUPAC condensed, linker removed
[1] = target: Neu5Ac(a2-6)Gal(b1-4)GlcNAc(b1-2)[Neu5Ac(a2-3)Gal(b1-4)GlcNAc(b1-4)]Man(a1-3)[Neu5Ac(a2-3)Gal(b1-4)GlcNAc(b1-2)Man(a1-6)]Man(b1-4)GlcNAc(b1-4)GlcNAc
Method in brief: (§1)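 Glycan array binding is given as a within-array Z-score, which can be read as non-binding when negative. The arrays, 3228 of them, came from the Consortium for Functional Glycomics database and were retained only where the protein sequence was available. Z-scores were averaged across arrays of the same protein sequence at different concentrations or buffers and across linkers.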

[2] = target: Neu5Ac(a2-6)Gal(b1-4)GlcNAc(b1-2)[Neu5Ac(a2-6)Gal(b1-4)GlcNAc(b1-4)]Man(a1-3)[GlcNAc(b1-4)][Neu5Ac(a2-6)Gal(b1-4)GlcNAc(b1-2)[Neu5Ac(a2-6)Gal(b1-4)GlcNAc(b1-6)]Man(a1-6)]Man(b1-4)GlcNAc(b1-4)GlcNAc
Method in brief: as §1

[3] = target: Neu5Ac(a2-6)Gal(b1-4)GlcNAc(b1-2)[Neu5Ac(a2-6)Gal(b1-4)GlcNAc(b1-4)]Man(a1-3)[GlcNAc(b1-4)][Neu5Ac(a2-6)Gal(b1-4)GlcNAc(b1-4)Man(a1-6)]Man(b1-4)GlcNAc(b1-4)GlcNAc
Method in brief: as §1

[4] = target: Neu5Ac(a2-6)Gal(b1-4)GlcNAc(b1-2)[Neu5Ac(a2-6)Gal(b1-4)GlcNAc(b1-6)]Man(a1-6)[Neu5Ac(a2-6)Gal(b1-4)GlcNAc(b1-2)Man(a1-3)][GlcNAc(b1-4)]Man(b1-4)GlcNAc(b1-4)GlcNAc
Method in brief: as §1

[5] = target: Neu5Ac(a2-6)Gal(b1-4)GlcNAc(b1-3)Gal(b1-3)GlcNAc
Method in brief: as §1

[6] = target: Neu5Ac(a2-6)Gal(b1-4)GlcNAc(b1-3)Gal(b1-4)Glc
Method in brief: as §1

[7] = target: Neu5Ac(a2-6)Gal(b1-4)GlcNAc(b1-3)Gal(b1-4)GlcNAc
Method in brief: as §1

[8] = target: Neu5Ac(a2-6)Gal(b1-4)GlcNAc(b1-3)Gal(b1-4)GlcNAc(b1-2)Man(a1-3)[Neu5Ac(a2-6)Gal(b1-4)GlcNAc(b1-3)Gal(b1-4)GlcNAc(b1-2)Man(a1-6)]GalNAc
Method in brief: as §1

[9] = target: Neu5Ac(a2-6)Gal(b1-4)GlcNAc(b1-3)Gal(b1-4)GlcNAc(b1-3)Gal(b1-4)GlcNAc
Method in brief: as §1

[10] = target: Neu5Ac(a2-6)Gal(b1-4)GlcNAc(b1-3)Gal(b1-4)GlcNAc(b1-3)Gal(b1-4)GlcNAc(b1-2)Man(a1-3)[Neu5Ac(a2-6)Gal(b1-4)GlcNAc(b1-3)Gal(b1-4)GlcNAc(b1-3)Gal(b1-4)GlcNAc(b1-2)Man(a1-6)]GalNAc
Method in brief: as §1

[11] = target: Neu5Ac(a2-6)Gal(b1-4)GlcNAc(b1-3)Gal(b1-4)GlcNAc(b1-3)GalNAc
Method in brief: as §1

[12] = target: Neu5Ac(a2-6)Gal(b1-4)GlcNAc(b1-3)Gal(b1-4)GlcNAc(b1-3)[Neu5Ac(a2-6)Gal(b1-4)GlcNAc(b1-3)Gal(b1-4)GlcNAc(b1-6)]GalNAc
Method in brief: as §1

[13] = target: Neu5Ac(a2-6)Gal(b1-4)GlcNAc(b1-3)Gal(b1-4)GlcNAc(b1-6)[Gal(b1-3)]GalNAc
Method in brief: as §1

[14] = target: Neu5Ac(a2-6)Gal(b1-4)GlcNAc(b1-3)Gal(b1-4)[Fuc(a1-3)]Glc
Method in brief: as §1

[15] = target: Neu5Ac(a2-6)Gal(b1-4)GlcNAc(b1-3)Gal(b1-4)[Fuc(a1-3)]GlcNAc(b1-3)Gal(b1-4)[Fuc(a1-3)]GlcNAc
Method in brief: as §1

[16] = target: Neu5Ac(a2-6)Gal(b1-4)GlcNAc(b1-3)GalNAc
Method in brief: as §1

[17] = target: Neu5Ac(a2-6)Gal(b1-4)GlcNAc(b1-3)[Neu5Ac(a2-6)Gal(b1-4)GlcNAc(b1-6)]Gal(b1-4)Glc
Method in brief: as §1

[18] = target: Neu5Ac(a2-6)Gal(b1-4)GlcNAc(b1-3)[Neu5Ac(a2-6)Gal(b1-4)GlcNAc(b1-6)]GalNAc
Method in brief: as §1

[19] = target: Neu5Ac(a2-6)Gal(b1-4)GlcNAc(b1-6)GalNAc
Method in brief: as §1

[20] = target: Neu5Ac(a2-6)Gal(b1-4)GlcNAc(b1-6)[Gal(b1-3)GlcNAc(b1-3)]Gal(b1-4)Glc
Method in brief: as §1

[21] = target: Neu5Ac(a2-6)Gal(b1-4)GlcNAc(b1-6)[Gal(b1-3)]GalNAc
Method in brief: as §1

[22] = target: Neu5Ac(a2-6)Gal(b1-4)GlcNAc6S
Method in brief: as §1

[23] = target: Neu5Ac(a2-6)Gal(b1-4)[Fuc(a1-3)]GlcNAc(b1-3)Gal(b1-4)Glc
Method in brief: as §1

[24] = target: Neu5Ac(a2-6)Gal(b1-6)GalNAc(b1-4)Gal(b1-4)Glc
Method in brief: as §1

[25] = target: Neu5Ac(a2-6)Gal6S
Method in brief: as §1

[26] = target: Neu5Ac(a2-6)Gal6S(b1-4)Glc
Method in brief: as §1

[27] = target: Neu5Ac(a2-6)Gal6S(b1-4)Glc4S
Method in brief: as §1

[28] = target: Neu5Ac(a2-6)GalNAc
Method in brief: as §1

[29] = target: Neu5Ac(a2-6)GalNAc(b1-4)GlcNAc
Method in brief: as §1

[30] = target: Neu5Ac(a2-6)GalNAc(b1-4)GlcNAc6S
Method in brief: as §1

[31] = target: Neu5Ac(a2-6)Glc
Method in brief: as §1

[32] = target: Neu5Ac(a2-6)Glc6S
Method in brief: as §1

[33] = target: Neu5Ac(a2-6)GlcNAc
Method in brief: as §1

[34] = target: Neu5Ac(a2-6)GlcNAc(b1-4)GlcNAc
Method in brief: as §1

[35] = target: Neu5Ac(a2-6)GlcNAc(b1-4)GlcNAc(b1-4)GlcNAc
Method in brief: as §1

[36] = target: Neu5Ac(a2-6)GlcNAc6S
Method in brief: as §1

[37] = target: Neu5Ac(a2-8)Neu5Ac
Method in brief: as §1

[38] = target: Neu5Ac(a2-8)Neu5Ac(a2-3)Gal
Method in brief: as §1

[39] = target: Neu5Ac(a2-8)Neu5Ac(a2-3)Gal(b1-3)GalNAc(b1-4)[Neu5Ac(a2-3)]Gal(b1-4)Glc
Method in brief: as §1

[40] = target: Neu5Ac(a2-8)Neu5Ac(a2-3)Gal(b1-3)GalNAc(b1-4)[Neu5Ac(a2-8)Neu5Ac(a2-3)]Gal(b1-4)Glc
Method in brief: as §1

[41] = target: Neu5Ac(a2-8)Neu5Ac(a2-3)Gal(b1-4)Glc
Method in brief: as §1

[42] = target: Neu5Ac(a2-8)Neu5Ac(a2-3)Gal(b1-4)GlcNAc
Method in brief: as §1

[43] = target: Neu5Ac(a2-8)Neu5Ac(a2-3)[Gal(b1-3)GalNAc(b1-4)]Gal(b1-4)Glc
Method in brief: as §1

[44] = target: Neu5Ac(a2-8)Neu5Ac(a2-3)[GalNAc(b1-4)]Gal(b1-4)Glc
Method in brief: as §1

[45] = target: Neu5Ac(a2-8)Neu5Ac(a2-6)Gal
Method in brief: as §1

B1: CLEC5A (Homo sapiens), Q9NY25 (protein)
chain: MNWHMIISGLIVVVLKVVGMTLFLLYFPQIFNKSNDGFTTTRSYGTVSQIFGSSSPSPNGFITTRSYGTVCPKDWEFYQARCFFLSTSESSWNESRDFCKGKGSTLAIVNTPEKLKFLQDITDAEKYFIGLIYHREEKRWRWINNSVFNGNVTNQNQNFNCATIGLTKTFDAASCDISYRRICEKNAK
glycan array binding signal (z-score) [1]: -0.32
glycan array binding signal (z-score) [2]: 0.123
glycan array binding signal (z-score) [3]: -0.023
glycan array binding signal (z-score) [4]: -0.184
glycan array binding signal (z-score) [5]: 0.253
glycan array binding signal (z-score) [6]: -0.32
glycan array binding signal (z-score) [7]: -0.159
glycan array binding signal (z-score) [8]: 0.366
glycan array binding signal (z-score) [9]: -0.19
glycan array binding signal (z-score) [10]: 0.213
glycan array binding signal (z-score) [11]: -0.189
glycan array binding signal (z-score) [12]: -0.099
glycan array binding signal (z-score) [13]: -0.156
glycan array binding signal (z-score) [14]: 0.162
glycan array binding signal (z-score) [15]: -0.16
glycan array binding signal (z-score) [16]: -0.058
glycan array binding signal (z-score) [17]: 0.644
glycan array binding signal (z-score) [18]: -0.105
glycan array binding signal (z-score) [19]: -0.056
glycan array binding signal (z-score) [20]: -0.224
glycan array binding signal (z-score) [21]: 0.23
glycan array binding signal (z-score) [22]: -0.08
glycan array binding signal (z-score) [23]: -0.32
glycan array binding signal (z-score) [24]: -0.32
glycan array binding signal (z-score) [25]: -0.32
glycan array binding signal (z-score) [26]: -0.32
glycan array binding signal (z-score) [27]: -0.127
glycan array binding signal (z-score) [28]: -0.392
glycan array binding signal (z-score) [29]: -0.195
glycan array binding signal (z-score) [30]: -0.137
glycan array binding signal (z-score) [31]: -0.32
glycan array binding signal (z-score) [32]: -0.32
glycan array binding signal (z-score) [33]: -0.32
glycan array binding signal (z-score) [34]: -0.319
glycan array binding signal (z-score) [35]: -0.117
glycan array binding signal (z-score) [36]: -0.32
glycan array binding signal (z-score) [37]: 0.123
glycan array binding signal (z-score) [38]: -0.32
glycan array binding signal (z-score) [39]: -0.208
glycan array binding signal (z-score) [40]: -0.18
glycan array binding signal (z-score) [41]: -0.294
glycan array binding signal (z-score) [42]: -0.191
glycan array binding signal (z-score) [43]: -0.133
glycan array binding signal (z-score) [44]: -0.288
glycan array binding signal (z-score) [45]: 0.451
